Laboratory results reported in article PMC8136815.
Like-named read-outs stand apart in the source and are kept apart here. Results are given in words; binding and its absence hold for the method and conditions named. Binding seen in cells or lysates may run through a third protein. Some binding calls cover weakened binding; strength is not graded here. For some of these results: Sequences can lack the tags named with a protein.

Amino acid sequences for entries named in this document (tags omitted).
UniProt Q01844: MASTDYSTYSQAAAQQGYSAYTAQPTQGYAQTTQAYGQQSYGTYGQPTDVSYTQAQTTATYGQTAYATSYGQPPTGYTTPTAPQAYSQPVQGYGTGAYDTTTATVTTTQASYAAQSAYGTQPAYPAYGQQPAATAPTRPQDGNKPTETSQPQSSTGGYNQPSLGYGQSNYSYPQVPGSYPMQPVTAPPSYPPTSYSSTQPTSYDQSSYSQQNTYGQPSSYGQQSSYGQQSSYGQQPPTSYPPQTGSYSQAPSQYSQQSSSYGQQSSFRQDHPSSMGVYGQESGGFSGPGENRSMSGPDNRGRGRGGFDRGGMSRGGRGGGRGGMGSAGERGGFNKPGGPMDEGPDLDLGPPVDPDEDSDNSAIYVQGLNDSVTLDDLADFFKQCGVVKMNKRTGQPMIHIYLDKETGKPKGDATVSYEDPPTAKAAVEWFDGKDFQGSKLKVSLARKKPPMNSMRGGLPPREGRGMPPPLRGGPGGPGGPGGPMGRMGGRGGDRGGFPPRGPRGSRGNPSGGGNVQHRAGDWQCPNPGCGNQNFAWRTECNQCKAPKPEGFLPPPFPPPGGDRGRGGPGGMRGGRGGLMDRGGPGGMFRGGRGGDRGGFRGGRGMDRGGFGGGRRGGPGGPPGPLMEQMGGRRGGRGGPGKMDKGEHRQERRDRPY
UniProt Q13435: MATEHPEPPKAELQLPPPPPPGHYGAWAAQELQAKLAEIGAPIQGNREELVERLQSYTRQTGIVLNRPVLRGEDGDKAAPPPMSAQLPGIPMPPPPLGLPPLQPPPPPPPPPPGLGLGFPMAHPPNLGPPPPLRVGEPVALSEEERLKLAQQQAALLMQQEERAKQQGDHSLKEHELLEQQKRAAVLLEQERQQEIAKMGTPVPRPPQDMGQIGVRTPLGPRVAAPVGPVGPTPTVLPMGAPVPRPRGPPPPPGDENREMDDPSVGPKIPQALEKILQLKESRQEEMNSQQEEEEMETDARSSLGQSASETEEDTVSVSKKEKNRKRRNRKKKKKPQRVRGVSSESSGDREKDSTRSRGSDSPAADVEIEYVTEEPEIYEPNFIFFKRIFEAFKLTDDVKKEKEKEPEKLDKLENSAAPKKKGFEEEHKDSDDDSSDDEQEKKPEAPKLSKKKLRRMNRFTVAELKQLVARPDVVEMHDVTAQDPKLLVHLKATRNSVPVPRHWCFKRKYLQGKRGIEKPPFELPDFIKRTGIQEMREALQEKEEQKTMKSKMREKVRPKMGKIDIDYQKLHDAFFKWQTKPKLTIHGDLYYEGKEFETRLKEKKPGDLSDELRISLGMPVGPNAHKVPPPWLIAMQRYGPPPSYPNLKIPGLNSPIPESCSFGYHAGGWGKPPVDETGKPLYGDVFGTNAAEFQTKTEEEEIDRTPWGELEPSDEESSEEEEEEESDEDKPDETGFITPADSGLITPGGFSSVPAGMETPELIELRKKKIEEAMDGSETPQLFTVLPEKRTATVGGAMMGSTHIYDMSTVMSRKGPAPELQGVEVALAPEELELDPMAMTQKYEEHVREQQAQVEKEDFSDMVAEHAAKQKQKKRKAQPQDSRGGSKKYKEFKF
UniProt Q15393: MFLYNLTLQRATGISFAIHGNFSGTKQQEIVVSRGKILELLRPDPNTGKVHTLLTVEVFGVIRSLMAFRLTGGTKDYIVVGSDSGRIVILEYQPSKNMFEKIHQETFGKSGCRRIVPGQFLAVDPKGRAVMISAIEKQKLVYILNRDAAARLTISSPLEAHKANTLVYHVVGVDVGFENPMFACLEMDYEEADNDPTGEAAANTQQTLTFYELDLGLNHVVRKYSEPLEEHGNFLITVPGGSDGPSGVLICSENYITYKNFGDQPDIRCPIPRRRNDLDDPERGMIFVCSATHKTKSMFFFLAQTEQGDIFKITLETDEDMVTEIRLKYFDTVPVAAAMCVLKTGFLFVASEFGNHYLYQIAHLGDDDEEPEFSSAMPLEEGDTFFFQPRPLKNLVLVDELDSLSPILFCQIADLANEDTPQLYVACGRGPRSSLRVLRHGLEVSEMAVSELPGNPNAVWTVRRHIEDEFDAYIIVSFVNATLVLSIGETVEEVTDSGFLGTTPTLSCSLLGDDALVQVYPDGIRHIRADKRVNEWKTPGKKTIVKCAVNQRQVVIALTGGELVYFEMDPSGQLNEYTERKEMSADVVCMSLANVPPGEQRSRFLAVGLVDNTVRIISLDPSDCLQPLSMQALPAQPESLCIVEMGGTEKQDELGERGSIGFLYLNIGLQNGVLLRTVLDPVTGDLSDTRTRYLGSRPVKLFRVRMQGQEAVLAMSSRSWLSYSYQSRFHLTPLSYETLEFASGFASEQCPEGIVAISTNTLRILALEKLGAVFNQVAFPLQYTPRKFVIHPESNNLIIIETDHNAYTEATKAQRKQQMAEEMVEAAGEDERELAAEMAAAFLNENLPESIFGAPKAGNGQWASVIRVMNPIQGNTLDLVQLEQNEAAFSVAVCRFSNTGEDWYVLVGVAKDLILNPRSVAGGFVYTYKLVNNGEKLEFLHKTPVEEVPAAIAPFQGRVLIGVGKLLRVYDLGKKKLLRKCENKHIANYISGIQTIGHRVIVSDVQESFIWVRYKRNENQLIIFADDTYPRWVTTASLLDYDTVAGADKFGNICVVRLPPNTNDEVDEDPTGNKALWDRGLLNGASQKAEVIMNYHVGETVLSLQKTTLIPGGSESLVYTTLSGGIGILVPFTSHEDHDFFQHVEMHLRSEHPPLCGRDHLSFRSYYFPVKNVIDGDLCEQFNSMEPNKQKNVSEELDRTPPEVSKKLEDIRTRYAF
UniProt P08621: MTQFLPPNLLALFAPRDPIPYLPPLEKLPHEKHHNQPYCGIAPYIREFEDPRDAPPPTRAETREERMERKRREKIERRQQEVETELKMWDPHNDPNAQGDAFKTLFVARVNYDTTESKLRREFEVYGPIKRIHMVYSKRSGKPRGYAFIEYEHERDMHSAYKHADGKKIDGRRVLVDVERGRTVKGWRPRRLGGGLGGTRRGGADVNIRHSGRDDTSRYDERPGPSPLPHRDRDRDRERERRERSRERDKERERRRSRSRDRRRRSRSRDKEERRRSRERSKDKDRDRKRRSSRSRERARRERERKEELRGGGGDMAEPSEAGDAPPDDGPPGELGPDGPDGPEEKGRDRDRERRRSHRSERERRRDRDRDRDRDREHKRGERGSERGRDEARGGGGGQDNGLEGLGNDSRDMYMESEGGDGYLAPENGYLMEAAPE

Columns and labels:
[1] = biological target: T1, endogenous ERG (human (endogenous in HeLa)) (UniProt P11308); assay: co-IP; endogenous ERG immunoprecipitated with anti-ERG antibody and Protein G magnetic beads from HeLa lysates (IPLS buffer, 120 mM NaCl, 0.5% NP-40), lysates incubated 30 min at 37°C with or without RNase A (200 μg/ml); Western blot
T1 sequence: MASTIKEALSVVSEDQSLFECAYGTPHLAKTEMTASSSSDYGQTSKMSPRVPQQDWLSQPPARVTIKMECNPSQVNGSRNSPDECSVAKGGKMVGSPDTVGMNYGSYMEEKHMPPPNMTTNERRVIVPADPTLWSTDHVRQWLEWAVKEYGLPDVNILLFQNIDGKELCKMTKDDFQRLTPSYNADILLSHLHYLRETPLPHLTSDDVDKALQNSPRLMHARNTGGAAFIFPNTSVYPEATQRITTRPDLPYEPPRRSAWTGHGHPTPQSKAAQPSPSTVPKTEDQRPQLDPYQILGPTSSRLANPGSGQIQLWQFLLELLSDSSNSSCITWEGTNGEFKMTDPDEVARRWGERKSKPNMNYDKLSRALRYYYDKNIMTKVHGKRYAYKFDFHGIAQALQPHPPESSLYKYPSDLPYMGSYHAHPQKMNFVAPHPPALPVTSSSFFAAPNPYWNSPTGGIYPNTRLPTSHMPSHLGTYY

FLAG-tagged EWS (human) = FLAG-tagged EWS (human) (UniProt Q01844); assay: co-IP; RNase A-treated lysates of HEK293 cells transfected with Myc-RBFOX2 and FLAG-tagged proteins; anti-FLAG immunoprecipitation, anti-Myc and anti-FLAG Western blot
FLAG-tagged FLI1 (human) [2] = biological target: T2, FLAG-tagged FLI1 (human) (UniProt Q01543); assay: as above
T2 sequence: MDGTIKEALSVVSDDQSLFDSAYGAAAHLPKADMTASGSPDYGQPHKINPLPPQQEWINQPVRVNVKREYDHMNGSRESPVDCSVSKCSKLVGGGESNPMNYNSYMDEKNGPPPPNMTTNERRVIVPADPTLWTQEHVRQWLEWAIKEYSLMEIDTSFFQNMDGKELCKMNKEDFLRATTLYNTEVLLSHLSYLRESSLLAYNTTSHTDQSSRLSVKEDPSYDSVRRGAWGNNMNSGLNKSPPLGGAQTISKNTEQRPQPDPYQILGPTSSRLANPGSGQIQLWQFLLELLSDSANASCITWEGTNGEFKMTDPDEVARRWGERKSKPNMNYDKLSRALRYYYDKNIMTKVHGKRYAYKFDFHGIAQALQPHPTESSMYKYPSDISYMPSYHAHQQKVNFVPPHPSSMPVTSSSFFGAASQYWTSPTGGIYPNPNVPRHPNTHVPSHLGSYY

FLAG-tagged FEV (human) = biological target: T3, FLAG-tagged FEV (human) (UniProt Q99581); assay: co-IP; HEK293 cells transfected with FLAG-tagged ERG family members and HA-RBFOX1 or Myc-RBFOX2; anti-FLAG M2 magnetic beads, washes with IPLS and IPMS (500 mM NaCl) buffers; Western blot
T3 sequence: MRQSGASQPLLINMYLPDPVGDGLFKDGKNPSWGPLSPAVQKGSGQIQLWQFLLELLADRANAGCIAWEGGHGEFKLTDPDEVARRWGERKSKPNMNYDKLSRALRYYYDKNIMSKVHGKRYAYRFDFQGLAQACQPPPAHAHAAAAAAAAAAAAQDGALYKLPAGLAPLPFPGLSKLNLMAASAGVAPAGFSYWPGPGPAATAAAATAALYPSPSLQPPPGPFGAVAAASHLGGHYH

FLAG-tagged ERG (human) = biological target: T4, FLAG-tagged ERG (human) (UniProt P11308); assay: as above
T4 sequence: T1 sequence

FLAG-tagged FLI1 (human) [3] = biological target: T2, FLAG-tagged FLI1 (human); assay: as above
[4] = biological target: T5, ERG full-length fused to a Gaussia princeps luciferase fragment (human) (UniProt P11308); assay: split reporter; Gaussia princeps luciferase complementation (gPCA): GLucN1 and GLucN2 fusions co-transfected in HEK293T cells, luminescence of lysates 24 h after transfection
T5 sequence: T1 sequence

[5] = biological target: T1, endogenous ERG (human (endogenous in HeLa)); assay: co-IP; endogenous ERG immunoprecipitated with anti-ERG antibody and Protein G magnetic beads from HeLa lysates (IPLS buffer, 120 mM NaCl, 0.5% NP-40), lysates incubated 30 min at 37°C with or without RNase A (200 μg/ml); Western blot; remark: listed apart in the source

SF3B2 (from UniProt Q13435 1-895) was tested, and the binding [1] was “binds”.

In the case of SF3B3 (from UniProt Q15393 1-1217), the binding [1] is reported as “binds”.

In the case of U1–70K (from UniProt P08621 1-437), the binding [1] is reported as “binds”.

B1: Myc-tagged RBFOX2 (protein, UniProt O43251 1-390)
chain: MQNEPLTPGYHGFPARDSQGNQEPTTTPDAMVQPFTTIPFPPPPQNGIPTEYGVPHTQDYAGQTGEHNLTLYGSTQAHGEQSSNSPSTQNGSLTTEGGAQTDGQQSQTQSSENSESKSTPKRLHVSNIPFRFRDPDLRQMFGQFGKILDVEIIFNERGSKGFGFVTFENSADADRAREKLHGTVVEGRKIEVNNATARVMTNKKMVTPYANGWKLSPVVGAVYGPELYAASSFQADVSLGNDAAVPLSGRGGINTYIPLISLPLVPGFPYPTAATTAAAFRGAHLRGRGRTVYGAVRAVPPTAIPAYPGVVYQDGFYGADLYGGYAAYRYAQPATATAATAAAAAAAAYSDGYGRVYTADPYHALAPAASYGVGAVASLYRGGYSRFAPY
With B1 the binding (FLAG-tagged EWS (human)) was “no binding”, the binding (FLAG-tagged FLI1 (human) [2]) was “binds” and the binding (FLAG-tagged FEV (human)) was “binds”. For the same molecule, the binding (FLAG-tagged ERG (human)) was “binds” and the binding (FLAG-tagged FLI1 (human) [3]) was “binds”.

B2: HA-tagged RBFOX1 (protein, UniProt Q9NWB1 1-397)
chain: MNCEREQLRGNQEAAAAPDTMAQPYASAQFAPPQNGIPAEYTAPHPHPAPEYTGQTTVPEHTLNLYPPAQTHSEQSPADTSAQTVSGTATQTDDAAPTDGQPQTQPSENTENKSQPKRLHVSNIPFRFRDPDLRQMFGQFGKILDVEIIFNERGSKGFGFVTFENSADADRAREKLHGTVVEGRKIEVNNATARVMTNKKTVNPYTNGWKLNPVVGAVYSPEFYAGTVLLCQANQEGSSMYSAPSSLVYTSAMPGFPYPAATAAAAYRGAHLRGRGRTVYNTFRAAAPPPPIPAYGGVVYQDGFYGADIYGGYAAYRYAQPTPATAAAYSDSYGRVYAADPYHHALAPAPTYGVGAMNAFAPLTDAKTRSHADDVGLVLSSLQASIYRGGYNRFAPY
For B2, the binding (FLAG-tagged FEV (human)) was “binds”, the binding (FLAG-tagged ERG (human)) was “binds” and the binding (FLAG-tagged FLI1 (human) [3]) was “binds”.

B3: RBFOX2 fused to a Gaussia princeps luciferase fragment (protein, UniProt O43251 1-390)
chain: B1 chain
For B3, the binding [4] was “binds”.

B4: endogenous RBFOX2 (HeLa cells) (protein, UniProt O43251 1-390)
chain: B1 chain
With B4 the binding [5] was “binds”.
